# According to the supplement of paper PMC12355420:
# Where a name gives a salt, the structure may show the parent alone. The list shows a part of the results. Cut-off read from the data, not from the text of the source: active = 0.5 or less and inactive = the rest. Many values rest on one well or one pass, so single values are uncertain.
# Columns and labels:
# Details in all cases: 50 µM; 24 h
# [1] = system: HeLa VPS33A reporter cells; assay: relative cell viability (CellMask signal) vs DMSO (fraction of DMSO); higher = less cytotoxic;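 note: primary screen of an FDA-approved drug library in HeLa reporter cells in 96-well format, CellMask signal normalized to DMSO-treated wells set as 1, under 0.5 deemed highly cytotoxic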
# [2] = system: HeLa VPS33A R498W KI + HA-SDC1-FLAG; assay: relative GAG core protein HA-SDC1 amount per cell number vs DMSO (fraction of DMSO); higher = more SDC1 (GAG core protein);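 note: HA-SDC1 level read out by In-Cell Western staining with an anti-HA antibody against the N-terminal tag, screening FDA-approved library drugs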
# [3] = system: HeLa VPS33A KO + NLuc-VPS33A R498W; assay: relative mutant VPS33A R498W amount (NanoLuc luminescence) vs DMSO (fraction of DMSO); HeLa model of a glycosaminoglycan (GAG) storage disease; KI is knock-in and KO knock-out; SDC1 is syndecan 1; higher = higher mutant VPS33A level;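 note: screen of an FDA-approved drug library, NanoLuc luminescence read after lysing the treated cells, taken as a measure of mutant VPS33A protein stability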
SMILES,relative cell viability [1],relative GAG core protein HA-SDC1 amount per cell number [2],relative mutant VPS33A R498W amount [3]
Cc1cn(-c2cc(NC(=O)c3ccc(C)c(Nc4nccc(-c5cnccn5)n4)c3)cc(C(F)(F)F)c2)cn1 [Radotinib(IY-5511)],1.15,inactive: 1.06,1.04
CS(=O)(=O)Nc1ccc([N+](=O)[O-])cc1Oc1ccccc1 [Nimesulide],1.27,inactive: 0.689,0.981
C=C1[C@H](CO)[C@@H](O)C[C@@H]1n1cnc2c(=O)[nH]c(N)nc21 [Entecavir Hydrate],1.14,inactive: 0.981,1.27
COc1nc(C)nc(Cl)c1NC1=NCCN1 [Moxonidine],0.968,inactive: 1.29,1.2
CC(=O)Nc1cccc(-n2c(=O)n(C3CC3)c(=O)c3c(Nc4ccc(I)cc4F)n(C)c(=O)c(C)c32)c1 [Trametinib DMSO solvate],1.18,inactive: 1.24,1.3
Cn1cnc2c(F)c(Nc3ccc(Br)cc3Cl)c(C(=O)NOCCO)cc21 [AZD6244 (Selumetinib)],1.4,inactive: 1.24,0.97
Nc1nc(=O)c2c([nH]1)NCC(CNc1ccc(C(=O)N[C@@H](CCC(=O)O)C(=O)O)cc1)N2C=O (some centres not stated) [Leucovorin Calcium],1.24,inactive: 1.3,1.04
CN(C)CCCC1(c2ccc(F)cc2)OCc2cc(C#N)ccc21 (configuration not stated) [Citalopram hydrobromide],0.964,inactive: 0.583,0.579
O=P(O)(O)C(Cl)(Cl)P(=O)(O)O [Clodronate Disodium],1.07,inactive: 1.53,0.937
O=c1ccc2ccccc2o1 [Coumarin],1.04,inactive: 0.994,1.35
C[C@@H](O)[C@H]1C(=O)N2C(C(=O)[O-])=C(SC3Cn4cnc[n+]4C3)[C@H](C)[C@H]12 (some centres not stated) [Biapenem],1.14,inactive: 1.59,1.3
CCCCc1nc(Cl)c(CO)n1Cc1ccc(-c2ccccc2-c2nnn[nH]2)cc1 [Losartan],1.32,inactive: 1.13,0.983
CN[C@@H]1[C@H](O[C@H]2[C@H](O[C@H]3[C@H](O)[C@@H](O)[C@H](N=C(N)N)[C@@H](O)[C@@H]3N=C(N)N)O[C@@H](C)[C@]2(O)C=O)O[C@@H](CO)[C@H](O)[C@H]1O [Streptomycin sulfate],0.935,inactive: 1.07,1
COCCOC(=O)C1=C(C)NC(C)=C(C(=O)OC(C)C)C1c1cccc([N+](=O)[O-])c1 (configuration not stated) [Nimodipine],1.08,inactive: 1.26,0.259
CC(C)(CO)C(O)C(=O)NCCC(=O)O [Calcium D-Panthotenate],1.14,inactive: 0.959,1.33
CN1CC[C@@H](NC(=O)Nc2ccc(C#N)cc2)C[C@@H]1c1nc2ccccc2[nH]1,1.05,inactive: 0.576,0.678
CO/N=C(\C(=O)N[C@@H]1C(=O)N2C(C(=O)[O-])=C(C[N+]3(C)CCCC3)CS[C@H]12)c1csc(N)n1 [Cefepime Dihydrochloride Monohydrate],0.893,inactive: 0.904,1.61
Cc1nc(Nc2ncc(C(=O)Nc3c(C)cccc3Cl)s2)cc(N2CCN(CCO)CC2)n1 [Dasatinib Monohydrate],1.04,active: 0.423,0.0581
CCCCCCCCCCCCCCCCCCCCCCO [Docosanol (Abreua)],1.13,inactive: 1.41,0.755
O=C(O)C(O)Cc1ccc(O)c(O)c1 (configuration not stated) [Sodium Danshensu],1.12,inactive: 1.15,1.3

SMILES,relative cell viability [1],relative GAG core protein HA-SDC1 amount per cell number [2],relative mutant VPS33A R498W amount [3]
CC1(C)O[C@@H]2[C@@H](CO[C@@]3(COS(N)(=O)=O)OC(C)(C)O[C@@H]23)O1 [Topiramate],1.04,inactive: 1.13,1.25
CC(C)c1cc(-c2n[nH]c(=O)n2-c2ccc3c(ccn3C)c2)c(O)cc1O [Ganetespib (STA-9090)],0.955,inactive: 0.586,0.278
Cc1cc2c(cc1S(N)(=O)=O)S(=O)(=O)CCC2 [Meticrane],1.1,inactive: 1.24,0.971
CCCC(CCC)C(=O)O [Valproic acid],1.3,inactive: 1.06,1.11
CCOC(CN1CCN(CC(C)C(=O)c2ccccc2)CC1)c1ccccc1 (configuration not stated) [Eprazinone 2HCl],0.849,inactive: 0.548,0.469
CCOC(=O)c1ccc(C#Cc2ccc3c(c2)C(C)(C)CCS3)nc1 [Tazarotene],0.676,inactive: 0.579,0.579
C[C@H](Nc1ncnc2nc[nH]c12)c1cc2cccc(Cl)c2c(=O)n1-c1ccccc1,1.05,inactive: 0.873,0.44
"CC(C)(C)C#Cc1cc(N(C(=O)[C@H]2CC[C@H](C)CC2)[C@H]2CC[C@H](O)CC2)c(C(=O)O)s1 [VX-222 (VCH-222, Lomibuvir)]",0.526,inactive: 0.661,1.34
COC(=O)C1=CO[C@@H](O[C@@H]2O[C@H](CO)[C@@H](O)[C@H](O)[C@H]2O)[C@@H]2C(CO)=CC[C@H]12 [Geniposide],1,inactive: 0.755,0.999
Cc1cc(N2CCN([C@@H]3CN[C@H](C(=O)N4CCSC4)C3)CC2)n(-c2ccccc2)n1 [Teneligliptin hydrobromide],1.05,inactive: 0.787,0.322
CS(=O)(=O)N1CCN(Cc2cc3nc(-c4cccc5[nH]ncc45)nc(N4CCOCC4)c3s2)CC1,1.11,inactive: 0.88,2.88
C[N+](C)(C)CCOC(N)=O [Carbamoylcholine chloride],1.25,inactive: 0.674,1.09
CCN(CC)CCOC(=O)C(c1ccccc1)c1ccccc1 [Adiphenine HCl],1.05,inactive: 0.792,1.12
Cc1c(-c2ccnn2C)cc(C(=O)NCc2ccc(S(C)(=O)=O)cn2)c(=O)n1-c1cccc(C(F)(F)F)c1 [Alvelestat],1.22,inactive: 1.2,0.985
NNC(=O)c1ccncc1 [Isoniazid],1.05,inactive: 0.923,1.42
C[C@H](NC(=O)Cc1cc(F)cc(F)c1)C(=O)N[C@H](C(=O)OC(C)(C)C)c1ccccc1,1.23,inactive: 1.18,0.914
CCCCOc1ccc(CC(=O)NO)cc1 [Bufexamac],1.13,inactive: 0.887,0.741
Nc1ccn([C@@H]2O[C@H](CO)[C@@H](O)[C@@H]2O)c(=O)n1 [Cytarabine],1.57,inactive: 1.19,0.514
Cc1nccn1CC1CCc2c(c3ccccc3n2C)C1=O (configuration not stated) [Ondansetron],0.95,inactive: 0.953,1.14
CN(C/C=C/C#CC(C)(C)C)Cc1cccc2ccccc12 [Terbinafine HCl],0.905,inactive: 0.538,0.575

SMILES,relative cell viability [1],relative GAG core protein HA-SDC1 amount per cell number [2],relative mutant VPS33A R498W amount [3]
NS(=O)(=O)NCCNc1nonc1/C(=N/O)Nc1ccc(F)c(Br)c1,1.18,inactive: 0.564,0.546
NC(=O)c1cn(Cc2c(F)cccc2F)nn1 [Rufinamide],1.02,inactive: 0.791,1.16
C=C[C@H]1CN2CC[C@H]1C[C@H]2[C@H](O)c1ccnc2ccc(OC)cc12 [Quinine HCl Dihydrate],1.01,inactive: 0.829,1.59
C[C@H](CCC(=O)O)[C@H]1CC[C@H]2[C@@H]3CC[C@@H]4C[C@H](O)CC[C@]4(C)[C@H]3CC[C@]12C [Lithocholic Acid],1.12,inactive: 1.01,1.17
C#C[C@]1(O)CC[C@H]2[C@@H]3CCc4cc(O)ccc4[C@H]3CC[C@@]21C [Ethinyl Estradiol],0.922,active: 0.344,0.559
CC(=O)Oc1ccc(C(c2ccc(OC(C)=O)cc2)c2ccccn2)cc1 [Bisacodyl],1.06,inactive: 0.906,0.955
Cc1cccc(O)c1 [m-Cresol],1.01,inactive: 1.06,1.18
COc1cc(CNC(=O)CCCC/C=C/C(C)C)ccc1O [Capsaicin],1.12,inactive: 1.27,1.25
CCCN[C@H]1CCc2nc(N)sc2C1 [Pramipexole 2HCl Monohydrate],1.15,inactive: 1.29,1.53
COc1cc(/C=C/C(=O)O)ccc1O [Fumalic acid],1.04,inactive: 0.86,1.05
COc1ccc([C@@H]2OC[C@H]3[C@@H]2CO[C@@H]3c2ccc3c(c2)OCO3)cc1OC [Fargesin],0.934,inactive: 0.667,0.699
N=C1CCCN1Cc1[nH]c(=O)[nH]c(=O)c1Cl [Tipiracil hydrochloride],1.21,inactive: 1.78,1.16
Oc1ccc([C@H]2COc3cc(O)ccc3C2)cc1 [Equol],1.32,inactive: 0.908,0.941
NS(=O)(=O)c1cc(C(=O)O)c(NCc2ccco2)cc1Cl [Furosemide],1.2,inactive: 1.16,0.817
N[C@H](CO)C(=O)O,1.13,inactive: 1.25,1.3
NC(=O)c1ccccc1O [Salicylamide],1.04,inactive: 0.863,1.11
O=S(=O)(O)NC1CCCCC1 [Cyclamic acid],1.02,inactive: 0.945,1.5
COC(=O)[C@@H]1[C@H]2C[C@H]3c4[nH]c5ccccc5c4CCN3C[C@@H]2CC[C@@H]1O [Yohimbine Hydrochloride],1.03,inactive: 0.928,1.46
O[C@@H]1CO[C@H]2[C@@H]1OC[C@@H]2O [Isosorbide],0.86,inactive: 1.13,1.21
